Assay results from paper PMC4336329 (PLoS ONE, 2015).
Hit rate of the full screen: of about 310,000 compounds, about 2,200 (0.71%) showed an effect of 50% or more. Effects have a minus sign here. Some of the results follow.

Each compound was assayed against human ether-à-go-go-related gene (hERG) potassium channel (human, UniProt Q12809) (assay: primary screen, population patch clamp on CHO cells stably expressing hERG).
human ether-à-go-go-related gene (hERG) potassium channel, sequence (Q12809 whole entry, looked up): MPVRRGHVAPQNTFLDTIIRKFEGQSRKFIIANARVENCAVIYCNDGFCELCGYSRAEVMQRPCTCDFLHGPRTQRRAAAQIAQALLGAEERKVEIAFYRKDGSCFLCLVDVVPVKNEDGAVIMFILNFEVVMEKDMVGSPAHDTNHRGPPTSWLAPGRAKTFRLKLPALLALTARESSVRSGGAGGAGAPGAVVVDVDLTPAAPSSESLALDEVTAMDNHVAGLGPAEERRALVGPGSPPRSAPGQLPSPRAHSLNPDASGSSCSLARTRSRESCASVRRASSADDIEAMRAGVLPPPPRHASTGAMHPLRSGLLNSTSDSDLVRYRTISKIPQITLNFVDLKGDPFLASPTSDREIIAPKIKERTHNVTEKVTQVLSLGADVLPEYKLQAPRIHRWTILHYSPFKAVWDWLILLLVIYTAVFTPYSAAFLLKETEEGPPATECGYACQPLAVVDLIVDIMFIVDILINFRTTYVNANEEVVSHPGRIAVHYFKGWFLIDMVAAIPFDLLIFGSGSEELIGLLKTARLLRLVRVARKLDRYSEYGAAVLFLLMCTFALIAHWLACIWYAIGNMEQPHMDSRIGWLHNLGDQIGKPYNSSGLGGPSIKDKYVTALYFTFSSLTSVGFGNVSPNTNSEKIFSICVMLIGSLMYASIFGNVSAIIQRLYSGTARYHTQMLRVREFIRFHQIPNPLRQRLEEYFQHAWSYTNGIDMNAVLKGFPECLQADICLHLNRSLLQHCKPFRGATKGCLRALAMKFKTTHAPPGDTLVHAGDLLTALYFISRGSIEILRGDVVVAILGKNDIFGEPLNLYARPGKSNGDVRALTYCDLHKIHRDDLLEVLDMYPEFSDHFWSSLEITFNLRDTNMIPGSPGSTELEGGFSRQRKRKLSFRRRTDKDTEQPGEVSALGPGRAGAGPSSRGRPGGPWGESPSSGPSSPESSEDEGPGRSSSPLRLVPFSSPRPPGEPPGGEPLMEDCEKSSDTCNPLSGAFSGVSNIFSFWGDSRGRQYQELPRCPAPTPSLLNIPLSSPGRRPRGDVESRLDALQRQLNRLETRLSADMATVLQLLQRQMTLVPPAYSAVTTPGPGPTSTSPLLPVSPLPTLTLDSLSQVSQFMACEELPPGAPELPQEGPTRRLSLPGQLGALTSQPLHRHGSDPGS

Row | SMILES | hERG current change (%, negative = inhibition) at 1uM
1 | CC(Sc1nncn1C)C(=O)Nc1ccccc1-c1ccccc1 (stereo not drawn) | 16.7%
2 | CCOC(=O)c1c(-c2ccco2)csc1NC(=O)COC(=O)c1cnc(C)cn1 | 6.69%
3 | O=C(c1ccc(S(=O)(=O)c2ccccc2)cc1)N1CCCCCC1 | 1.02%
4 | CCc1ccc(C(=O)N2CCN(c3ccc(F)cc3)CC2)s1 | 0.316%
5 | [O-][n+]1c2ccc3nonc3c2nn1-c1ccccc1Cl | 13.1%
6 | C=CCNC(=O)CN(c1ccc(OC)cc1OC)S(C)(=O)=O | 15.2%
7 | Cc1cc(=O)n2nc(N3CCC(C(=O)NCc4ccc(Cl)cc4)CC3)sc2n1 | -23.3%
8 | O=C(O)CC/C(=N\NC(=O)c1ccccc1Br)c1ccccc1 | 19%
9 | COc1ccccc1NC(=O)c1c(C)cc(=O)oc1C | 8.99%
10 | CC(C)CC(NC(=O)CNC(=O)C1O[C@@H]2OC(C)(C)O[C@@H]2[C@H]2OC(C)(C)O[C@@H]12)C(=O)O (stereo partly drawn) | 15.7%
11 | O=C(NC(C(=O)c1ccccc1)N1CCOCC1)c1ccccc1 (stereo not drawn) | 9.98%
12 | Cc1ccc(S(=O)(=O)NNC(=O)Nc2ccc([N+](=O)[O-])cc2)c(C)c1 | 4.33%
13 | CCOC(=O)c1[nH]c2ccccc2c1NC(=O)C(CC)CC | 13%
14 | Cc1ccc(-c2nn(-c3ccccc3)cc2C(=O)O)o1 | 19.2%
15 | NCCCNc1nc(N)c([N+](=O)[O-])c(NC2CCCCC2)n1 | 5.5%
16 | COc1cc(C2NC(=O)C(C#N)=C(S)N2c2ccccc2)ccc1OC(C)C (stereo not drawn) | 16.2%
17 | COc1ccc(OC)c(N2CC(O)(c3ccccc3)[N+]3=C2SCCC3)c1.[Br-] (stereo not drawn) | -24.6%
18 | O=C(CSCc1ccc(F)cc1)NC1CCCC1 | 5.03%
19 | O=C1CCC(C(=O)OCc2nnc(-c3ccc(Cl)cc3)o2)=NN1 | 15.1%
20 | CCOC(=O)N1CCN(S(=O)(=O)c2ccc(OCC(=O)OC)cc2)CC1 | 13.7%
21 | Cc1cccc(C)c1NC(=O)CN(C)C(=O)c1ccccc1Cc1ccccc1 | 4.35%
22 | O=C(CCCC(=O)N1CCN(c2cccc(Cl)c2)CC1)c1ccccc1 | 1.83%
23 | CC(C)C(=O)Nc1nnc(SCC(=O)NCc2ccc3c(c2)OCO3)s1 | 11.7%

Row | SMILES | hERG current change (%, negative = inhibition) at 1uM
24 | Cn1c(=O)cc(SCC(=O)NCCC2=CCCCC2)c2cc(Cl)ccc21 | 2.05%
25 | COc1cc(Cl)c(C)cc1NC(=O)CSc1nc2ccccc2o1 | 18%
26 | c1ccc(-c2nn[nH]n2)nc1 | 12.5%
27 | Cc1ccc(NC(=O)CCCC2CCCCC2)c(O)c1 | 4.31%
28 | CCC1CCCCN1C(=O)C1CC(c2cc(Cl)c(OC)cc2OC)=NO1 (stereo not drawn) | 15.8%
29 | COc1ccc(OC)c2sc(N3CCN(C(=O)c4ccc5ncsc5c4)CC3)nc12 | 5.07%
30 | COc1cc(C2C3=C(CC(C)(C)CC3=O)OC3=C2C(=O)CC(C)(C)C3)cc([N+](=O)[O-])c1O | 7.64%
31 | CN(C)CCCNC(=O)c1ccc2[nH]c3ccccc3c2c1 | -3.67%
32 | COc1ccc(Br)cc1C1SCCN1S(C)(=O)=O (stereo not drawn) | 6.03%
33 | O=C(COC(=O)COc1ccccc1)NCCc1ccccc1 | 8.55%
34 | Cc1occc1C(=O)Nc1cccc2ccccc12 | 10.8%
35 | O=C(COC(=O)CNC(=O)c1ccccc1)NCCNC(=O)COC(=O)CNC(=O)c1ccccc1 | 7.34%
36 | COc1ccc(C(=O)OCC(=O)N(C)C2CCS(=O)(=O)C2)cc1S(=O)(=O)N(C)Cc1ccccc1 (stereo not drawn) | 10.1%
37 | O=C(Nn1cnc2ccccc2c1=O)c1ccccc1Cl | 12.8%
38 | COC(=O)Nc1ccc(S(=O)(=O)Nc2cc(C(F)(F)F)c[nH]c2=O)cc1 | 17.3%
39 | O=C(CSc1nnc(NC(=O)c2ccco2)s1)NC1CCCC1 | 18.8%
40 | CCOC(=O)Cn1c(S(=O)(=O)Cc2ccc(F)cc2)nc(-c2ccccc2)c1-c1ccccc1 | 3.66%
41 | CCOC(=O)N1CCN(CC(=O)Nc2ccc([N+](=O)[O-])cc2C(=O)Nc2ccccc2F)CC1 | -5.13%
42 | Cc1c(C(=O)O)sc2nc3n(c(=O)c12)CCC(C)CC3 (stereo not drawn) | 7.56%
43 | Cc1ccc(C(=O)N2CCN(S(=O)(=O)N3CCCCCC3)CC2)cc1 | 9.4%
44 | COC(=O)CC1=C(C(=O)OC)C(c2cc(OC)c(OC)cc2OC)C(C#N)=C(N)O1 (stereo not drawn) | -6.5%
45 | O=C(NNC(=O)c1ccc(NC(=O)c2ccccc2)cc1)c1ccc(F)cc1 | 18%
46 | OCCC1CN(Cc2cccc(O)c2)CCN1CCc1ccccc1 (stereo not drawn) | -5.31%

Row | SMILES | hERG current change (%, negative = inhibition) at 1uM
47 | CCN(c1ccccc1)C1(O)C(=O)c2ccccc2C1=O | 22.7%
48 | COc1ccccc1OCc1ccc(C(=O)NCc2ccco2)o1 | 11.5%
49 | Cc1nnc(SCC(=O)Nc2ccc3c(c2)OCCO3)n1N | 14.8%
50 | COc1ccccc1CNC(=O)C1(NC(=O)Nc2ccc(C)cc2)CCCCC1 | 27.6%
51 | Cc1cccnc1NC(=O)CSc1nnc(CNC(=O)c2cccc([N+](=O)[O-])c2)n1C | 12.8%
52 | N=C1C2=C3Sc4ccccc4N3CCCC2=NN1c1cccc(S(=O)(=O)O)c1 | 16.7%
53 | C/C(=N\NC(=O)CSCc1cccc(Br)c1)c1ccc([N+](=O)[O-])cc1 | 4.58%
54 | CCn1c(SCC(=O)Nc2nnc(C)s2)nnc1C(C)NC(=O)c1ccccc1F (stereo not drawn) | 14.2%
55 | CC(C)(C)Oc1ncc(Br)c(OC(C)(C)C)n1 | 4.83%
56 | O=C1C2CCCCC2C(=O)N1c1nccs1 (stereo not drawn) | 5.43%
57 | COc1ccccc1/C=N/Nc1nc(C)cc(C)n1 | 8%
58 | COc1ccc(C(=O)N=c2nc3ccccn3s2)cc1 | 11.6%
59 | Cn1c(SCC(=O)NCC2CCCO2)nnc1-c1c[nH]c2ccccc12 (stereo not drawn) | -5.97%
60 | COC(=O)c1ccc(NC(=O)c2ccc3c(c2)OCO3)cc1 | 1.59%
61 | Cc1cccc(-c2c3c(=O)n(C)c(=O)n(C)c3cn2CC2CCCO2)c1 (stereo not drawn) | 7.56%
62 | CC(C)=CC(=O)Nc1ccc(Br)cc1 | 14.7%
63 | Cn1c(-c2sc3ccccc3c2Cl)n[nH]c1=S | 17.3%
64 | CCCc1nnc(NC(=O)CCC(=O)NCc2ccc(OC)cc2)s1 | 12.9%
65 | CCCc1cc(N2CCCC2)n2nc(C)c(-c3ccccc3)c2n1 | 17.5%
66 | Cc1ccc(NC(=O)c2cnccn2)cc1C | 15.4%
67 | Oc1ccc2ccccc2c1C=NCc1ccccc1 | 11.2%
68 | CCCCCC(=O)N1CC2(CC(c3cccc(NC(=O)CC(c4ccccc4)c4ccccc4)c3)=NO2)C[C@@H]1C(N)=O (stereo partly drawn) | 14.4%
69 | Cc1cnc2c(c1)C(=O)c1ccccc1-2 | 14.2%

Row | SMILES | hERG current change (%, negative = inhibition) at 1uM
70 | CC(=O)C1=C(C)NC2(O)c3ccccc3C(=O)C12O (stereo not drawn) | -24.5%
71 | O=C(C1CC1)N1CCN(Cc2ccccc2)CC1 | 2.72%
72 | COc1ccc(OC(=O)NCCc2ccccc2)cc1 | 12.2%
73 | CCC1CCCCN1C(=O)CN1C(=O)c2ccccc2S1(=O)=O (stereo not drawn) | 0.147%
74 | COc1ccc(NC(=S)Nc2cc(C)[nH]n2)cc1Cl | 9.79%
75 | CCOC(=O)C1CCN(C2=C(NS(=O)(=O)c3ccc(Cl)cc3)C(=O)c3ccccc3C2=O)CC1 | -3.02%
76 | COc1ccc(NC(=O)CSc2ccc(C)cc2)cc1 | 14.5%
77 | O=C(c1cccc(C(=O)N2CCN(c3ncccn3)CC2)c1)N1CCN(c2ncccn2)CC1 | 1.42%
78 | COc1ccc(NC(=O)CSCC(=O)N(C)CC(=O)Nc2ccc(Cl)c(C(F)(F)F)c2)cc1 | -12.7%
79 | Cc1ccc(NC(=O)CN(C)C(=O)c2ccc(Sc3nncn3C)c([N+](=O)[O-])c2)cc1 | -7.49%
80 | COc1ccc(C(CC(=O)O)N2C(=O)CCC2=O)cc1 (stereo not drawn) | 13.3%
81 | Cc1cc(C)n(CCC(=O)N/N=C/c2ccc(Br)c([N+](=O)[O-])c2)n1 | 8.07%
82 | CN1C=CC(=CC=C2C=CC(=O)C=C2)C=C1 | 14.3%
83 | COc1ccc(OC)c(NC(=O)CSc2nc(=O)n(CCN3CCOCC3)c3c2CCC3)c1 | 0.447%
84 | Cc1nc(NCc2ccccc2)c2cc[nH]c2n1 | 18.9%
85 | CC(C)[N+](C)(C)CC#CC(O)(c1ccccc1)c1ccccc1.[Br-] | 12.9%
86 | CCn1c(CCCCc2n[nH]c(=S)n2CC)n[nH]c1=S | 10.6%
87 | O=C1Nc2ccccc2N(O)N1c1cc(-c2ccccc2)[nH]n1 | 7.55%
88 | N/C(COc1ncn(-c2ccccc2)n1)=N\S(=O)(=O)c1ccccc1 | 6.11%
89 | COc1ccc(OC)c(C2=NO[C@@](CC(=O)O)(C(=O)Nc3ccc4c(c3)OCCO4)C2)c1 | 10.1%
90 | Cc1ccc[n+](C(C)C(=O)Nc2ccc(C)c([N+](=O)[O-])c2)c1.[Br-] (stereo not drawn) | 11.8%
